Binding data for 2 substances are collected here from publication PMC6418106.

Amino acid sequences for entries named in this document (tags omitted). A change or cut given only in a name is not applied to a line headed by its entry.
UniProt P27351: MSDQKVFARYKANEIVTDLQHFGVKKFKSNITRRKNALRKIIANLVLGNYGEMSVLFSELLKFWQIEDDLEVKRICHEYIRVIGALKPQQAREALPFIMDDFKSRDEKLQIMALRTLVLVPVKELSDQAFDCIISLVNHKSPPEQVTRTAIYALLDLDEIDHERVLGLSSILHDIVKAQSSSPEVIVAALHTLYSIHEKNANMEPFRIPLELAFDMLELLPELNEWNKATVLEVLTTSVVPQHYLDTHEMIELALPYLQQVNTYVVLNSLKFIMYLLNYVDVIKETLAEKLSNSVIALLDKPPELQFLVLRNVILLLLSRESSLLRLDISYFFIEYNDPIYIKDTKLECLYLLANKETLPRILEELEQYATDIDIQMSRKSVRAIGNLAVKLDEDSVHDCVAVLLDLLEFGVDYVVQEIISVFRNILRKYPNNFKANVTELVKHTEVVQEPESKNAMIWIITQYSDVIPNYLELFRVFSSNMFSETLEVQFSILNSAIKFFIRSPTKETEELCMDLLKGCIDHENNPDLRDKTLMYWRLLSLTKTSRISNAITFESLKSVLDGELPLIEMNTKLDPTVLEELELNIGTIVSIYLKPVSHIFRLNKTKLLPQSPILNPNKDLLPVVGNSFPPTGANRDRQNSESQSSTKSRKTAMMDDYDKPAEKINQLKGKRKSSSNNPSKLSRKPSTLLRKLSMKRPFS
UniProt P36000: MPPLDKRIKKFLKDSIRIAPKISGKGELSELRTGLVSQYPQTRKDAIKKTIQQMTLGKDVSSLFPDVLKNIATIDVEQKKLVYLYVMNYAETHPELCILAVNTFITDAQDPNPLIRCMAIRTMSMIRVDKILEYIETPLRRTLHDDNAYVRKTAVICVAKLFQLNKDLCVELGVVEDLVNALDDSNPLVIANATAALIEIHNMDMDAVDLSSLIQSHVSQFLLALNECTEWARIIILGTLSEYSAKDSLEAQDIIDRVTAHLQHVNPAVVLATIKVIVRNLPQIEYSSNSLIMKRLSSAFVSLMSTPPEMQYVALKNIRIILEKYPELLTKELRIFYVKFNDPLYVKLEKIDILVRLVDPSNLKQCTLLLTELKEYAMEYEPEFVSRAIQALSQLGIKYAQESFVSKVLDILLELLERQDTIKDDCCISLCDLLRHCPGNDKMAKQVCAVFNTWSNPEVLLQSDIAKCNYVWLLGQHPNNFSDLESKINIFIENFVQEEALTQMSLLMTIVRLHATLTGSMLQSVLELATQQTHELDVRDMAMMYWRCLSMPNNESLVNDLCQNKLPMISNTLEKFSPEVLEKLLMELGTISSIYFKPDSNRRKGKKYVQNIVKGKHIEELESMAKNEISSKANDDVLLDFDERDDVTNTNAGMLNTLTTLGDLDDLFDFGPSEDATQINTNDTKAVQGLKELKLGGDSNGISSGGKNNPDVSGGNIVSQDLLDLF

Assay in all cases: co-IP; 3xFLAG-Irc6 WT or mutants precipitated from yeast spheroplast lysates with ANTI-FLAG M2 magnetic beads (2 h, 4 °C; 20 mM HEPES pH 7.0, 125 mM KAc, 0.4 M sorbitol, 0.1% Triton X-100, 2 mM MgCl2, 0.5 mM EGTA), eluted with 3xFLAG peptide; blots with antibodies to β1 (AP-1), β2 (AP-2) and FLAG
Assay [1] addresses T1, 3xFLAG-Irc6 YY-AA mutant (BC-YY motif tyrosines 49 and 50 to alanine) (S. cerevisiae) (UniProt P43615).
T1 sequence: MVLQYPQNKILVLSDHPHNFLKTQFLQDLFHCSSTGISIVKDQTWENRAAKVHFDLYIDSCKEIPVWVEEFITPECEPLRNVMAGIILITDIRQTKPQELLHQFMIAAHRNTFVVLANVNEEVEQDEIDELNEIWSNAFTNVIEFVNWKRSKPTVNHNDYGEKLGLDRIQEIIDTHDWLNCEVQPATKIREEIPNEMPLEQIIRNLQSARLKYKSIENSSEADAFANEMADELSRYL

Assay [2] addresses T2, 3xFLAG-Irc6 wild type (aa1-237) (S. cerevisiae) (UniProt P43615).
T2 sequence: T1 sequence with A49Y, A50Y

The target in assay [3] is T3, 3xFLAG-Irc6 Y236* (mutant #42, lacks the terminal two residues) (S. cerevisiae) (UniProt P43615).
T3 sequence: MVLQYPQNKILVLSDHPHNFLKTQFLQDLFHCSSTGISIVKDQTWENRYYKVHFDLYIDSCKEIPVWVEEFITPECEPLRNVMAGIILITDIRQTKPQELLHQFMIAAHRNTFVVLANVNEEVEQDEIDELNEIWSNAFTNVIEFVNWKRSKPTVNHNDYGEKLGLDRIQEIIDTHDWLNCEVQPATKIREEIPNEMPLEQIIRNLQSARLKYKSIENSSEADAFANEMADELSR

Numbering of substitutions follows the chain as printed. No constants are given. Whether binding was seen depends on the method and setting. In cells and extracts the contact can be indirect. Some binding calls cover weakened binding; strength is not graded here. Tags and fused reporters may be left off the sequences shown.

As to “clathrin adaptor complex AP-2 (from UniProt P27351 1-700; P38065 1-1025; Q99186 1-491; Q00381 1-147)”, the values for the binding result in assay [1], in assay [2] and in assay [3] were “binds”, “binds” and “no binding”, respectively.

Turning to “clathrin adaptor complex AP-1 (from UniProt P36000 1-726; Q12028 1-832; Q00776 1-475; P35181 1-156)”, the figures for the binding entry in assay [1], in assay [2] and in assay [3] were “binds”, “binds” and “no binding”, respectively.
